Results reported in the supplement of paper PMC8728848.
The other results are listed elsewhere or left out.

Assays:
Test in all cases: glycan array binding signal (z-score within array); higher = stronger binding
Settings in all cases: glycan notation: IUPAC condensed, linker removed
Glc(a1-4)Glc = target: Glc(a1-4)Glc
In short: (§1)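 Arrays were curated from the Consortium for Functional Glycomics database, 3228 in total, and kept only where the protein sequence was available. Binding is expressed as a within-array Z-score. This score was averaged across arrays of the same protein sequence at different concentrations or buffers and across linkers, and negative values can be read as non-binding.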

[1] = target: Glc(a1-4)Glc(a1-4)Glc(a1-4)Glc
In short: as §1

Glc(a1-6)Glc(a1-6)Glc = target: Glc(a1-6)Glc(a1-6)Glc
In short: as §1

[2] = target: Glc(a1-6)Glc(a1-6)Glc(a1-6)Glc
In short: as §1

Glc(b1-4)Glc = target: Glc(b1-4)Glc
In short: as §1

Glc(b1-6)Glc = target: Glc(b1-6)Glc
In short: as §1

GlcA(b1-3)Gal = target: GlcA(b1-3)Gal
In short: as §1

GlcA(b1-3)GlcNAc = target: GlcA(b1-3)GlcNAc
In short: as §1

GlcA(b1-6)Gal = target: GlcA(b1-6)Gal
In short: as §1

[3] = target: GlcNAc(a1-3)Gal(b1-4)GlcNAc
In short: as §1

[4] = target: GlcNAc(a1-4)Gal(b1-3)GlcNAc
In short: as §1

[5] = target: GlcNAc(a1-4)Gal(b1-4)GalNAc
In short: as §1

[6] = target: GlcNAc(a1-4)Gal(b1-4)GlcNAc
In short: as §1

[7] = target: GlcNAc(a1-4)Gal(b1-4)GlcNAc(b1-3)Gal(b1-4)Glc
In short: as §1

[8] = target: GlcNAc(a1-4)Gal(b1-4)GlcNAc(b1-3)Gal(b1-4)GlcNAc
In short: as §1

[9] = target: GlcNAc(a1-4)Gal(b1-4)GlcNAc(b1-3)Gal(b1-4)GlcNAc(b1-3)Gal(b1-4)GlcNAc
In short: as §1

[10] = target: GlcNAc(a1-4)Gal(b1-4)GlcNAc(b1-3)Gal(b1-4)[Fuc(a1-3)]GlcNAc(b1-3)Gal(b1-4)[Fuc(a1-3)]GlcNAc
In short: as §1

[11] = target: GlcNAc(a1-6)Gal(b1-4)GlcNAc
In short: as §1

[12] = target: GlcNAc(b1-2)Gal(b1-3)GalNAc
In short: as §1

[13] = target: GlcNAc(b1-2)Man(a1-3)[GlcNAc(b1-2)Man(a1-6)]Man(b1-4)GlcNAc(b1-4)GlcNAc
In short: as §1

[14] = target: GlcNAc(b1-2)Man(a1-3)[GlcNAc(b1-2)Man(a1-6)]Man(b1-4)GlcNAc(b1-4)[Fuc(a1-6)]GlcNAc
In short: as §1

[15] = target: GlcNAc(b1-2)Man(a1-3)[GlcNAc(b1-4)][GlcNAc(b1-2)Man(a1-6)]Man(b1-4)GlcNAc(b1-4)GlcNAc
In short: as §1

[16] = target: GlcNAc(b1-2)[GlcNAc(b1-4)]Man(a1-3)[GlcNAc(b1-2)Man(a1-6)]Man(b1-4)GlcNAc(b1-4)GlcNAc
In short: as §1

[17] = target: GlcNAc(b1-2)[GlcNAc(b1-4)]Man(a1-3)[GlcNAc(b1-4)][GlcNAc(b1-2)Man(a1-6)]Man(b1-4)GlcNAc(b1-4)GlcNAc
In short: as §1

[18] = target: GlcNAc(b1-2)[GlcNAc(b1-4)]Man(a1-3)[GlcNAc(b1-4)][GlcNAc(b1-2)[GlcNAc(b1-6)]Man(a1-6)]Man(b1-4)GlcNAc(b1-4)GlcNAc
In short: as §1

[19] = target: GlcNAc(b1-2)[GlcNAc(b1-4)]Man(a1-3)[GlcNAc(b1-4)][GlcNAc(b1-2)[GlcNAc(b1-6)]Man(a1-6)]Man(b1-4)GlcNAc(b1-4)[Fuc(a1-6)]GlcNAc
In short: as §1

[20] = target: GlcNAc(b1-2)[GlcNAc(b1-6)]Man(a1-6)[GlcNAc(b1-2)Man(a1-3)]Man(b1-4)GlcNAc(b1-4)GlcNAc
In short: as §1

[21] = target: GlcNAc(b1-2)[GlcNAc(b1-6)]Man(a1-6)[GlcNAc(b1-2)Man(a1-3)]Man(b1-4)GlcNAc(b1-4)[Fuc(a1-6)]GlcNAc
In short: as §1

[22] = target: GlcNAc(b1-2)[GlcNAc(b1-6)]Man(a1-6)[GlcNAc(b1-2)Man(a1-3)][GlcNAc(b1-4)]Man(b1-4)GlcNAc(b1-4)GlcNAc
In short: as §1

GlcNAc(b1-3)Gal = target: GlcNAc(b1-3)Gal
In short: as §1

B1: CvGal1 (Crassostrea virginica), A7Y0I5 (protein)
chain: MTYQISKISQPFTSYIPNGLHIGKHLLLRGRVSYGTEAFAINLQQNPEPCNGEVAFHFNPRPGEQQCVRNSFDGGSWMDEERDQPHFPFDEGRSFTLRIEVAEEGFRTYVNGKPYVNFSHRLDLGNVHYLYLTEGAEFYDISYQDRYTLPYKSEIPQQMNVGKAVRIRGASQDNDGFSVNFACDPDNENCAFHFNPRPNEGVVVRNANLGGWGDEERDYEAEFPFHPYNYFDAMFICTDDKYLVHVNDKYFTEFNHRGGVDASSFFNIVGNLDIQDVEYFEPLEDDFVKTIPSGLVKGDVLIFRGFMKPGGDTFSINFMNGYSVEDDIAFHLNPRVGEGQVVMNCCMGGAWGDEEREDIPSPLADREPFEVKVVVKKNKFKVYVNGKKCMKFAARGNLEDIKGVNIKGEAYVYEVKLERKLEDSWEYLPGGFRVGGWVVVQAIPKKGSEGFAINFRTGSDEDSDIAFHFNPRLQENCTIRNSCAGGAWGGEERDQPDFPFEKKDTCEIAIQAQPDRFVTYVNGKRYIEFNHRLPLESITCVELTGRADFFEPKFF
- glycan array binding signal (z-score) (Glc(a1-4)Glc): -0.27
- glycan array binding signal (z-score) [1]: -0.272
- glycan array binding signal (z-score) (Glc(a1-6)Glc(a1-6)Glc): -0.275
- glycan array binding signal (z-score) [2]: -0.276
- glycan array binding signal (z-score) (Glc(b1-4)Glc): -0.303
- glycan array binding signal (z-score) (Glc(b1-6)Glc): -0.257
- glycan array binding signal (z-score) (GlcA(b1-3)Gal): -0.321
- glycan array binding signal (z-score) (GlcA(b1-3)GlcNAc): -0.243
- glycan array binding signal (z-score) (GlcA(b1-6)Gal): -0.259
- glycan array binding signal (z-score) [3]: 1.9
- glycan array binding signal (z-score) [4]: -0.313
- glycan array binding signal (z-score) [5]: -0.271
- glycan array binding signal (z-score) [6]: -0.266
- glycan array binding signal (z-score) [7]: -0.221
- glycan array binding signal (z-score) [8]: -0.301
- glycan array binding signal (z-score) [9]: -0.29
- glycan array binding signal (z-score) [10]: -0.119
- glycan array binding signal (z-score) [11]: -0.264
- glycan array binding signal (z-score) [12]: -0.288
- glycan array binding signal (z-score) [13]: -0.297
- glycan array binding signal (z-score) [14]: -0.3
- glycan array binding signal (z-score) [15]: -0.278
- glycan array binding signal (z-score) [16]: -0.282
- glycan array binding signal (z-score) [17]: -0.261
- glycan array binding signal (z-score) [18]: -0.288
- glycan array binding signal (z-score) [19]: -0.249
- glycan array binding signal (z-score) [20]: -0.231
- glycan array binding signal (z-score) [21]: -0.252
- glycan array binding signal (z-score) [22]: -0.268
- glycan array binding signal (z-score) (GlcNAc(b1-3)Gal): -0.285
